# This is one part of the list.
# B1: PRKCE (Homo sapiens), Q02156 (protein)
# chain: MVVFNGLLKIKICEAVSLKPTAWSLRHAVGPRPQTFLLDPYIALNVDDSRIGQTATKQKTNSPAWHDEFVTDVCNGRKIELAVFHDAPIGYDDFVANCTIQFEELLQNGSRHFEDWIDLEPEGRVYVIIDLSGSSGEAPKDNEERVFRERMRPRKRQGAVRRRVHQVNGHKFMATYLRQPTYCSHCRDFIWGVIGKQGYQCQVCTCVVHKRCHELIITKCAGLKKQETPDQVGSQRFSVNMPHKFGIHNYKVPTFCDHCGSLLWGLLRQGLQCKVCKMNVHRRCETNVAPNCGVDARGIAKVLADLGVTPDKITNSGQRRKKLIAGAESPQPASGSSPSEEDRSKSAPTSPCDQEIKELENNIRKALSFDNRGEEHRAASSPDGQLMSPGENGEVRQGQAKRLGLDEFNFIKVLGKGSFGKVMLAELKGKDEVYAVKVLKKDVILQDDDVDCTMTEKRILALARKHPYLTQLYCCFQTKDRLFFVMEYVNGGDLMFQIQRSRKFDEPRSRFYAAEVTSALMFLHQHGVIYRDLKLDNILLDAEGHCKLADFGMCKEGILNGVTTTTFCGTPDYIAPEILQELEYGPSVDWWALGVLMYEMMAGQPPFEADNEDDLFESILHDDVLYPVWLSKEAVSILKAFMTKNPHKRLGCVASQNGEDAIKQHPFFKEIDWVLLEQKKIKPPFKPRIKTKRDVNNFDQDFTREEPVLTLVDEAIVKQINQEEFKGFSYFGEDLMP
# What was measured:
# Experiment in all cases: glycan array binding signal (z-score within array); higher = stronger binding
# Details in all cases: glycan notation: IUPAC condensed, linker removed
# [1] = target: Neu5Ac(a2-3)Gal(b1-3)[Neu5Ac(a2-6)]GlcNAc(b1-3)[Fuc(a1-3)[Gal(b1-4)]GlcNAc(b1-6)]Gal(b1-4)Glc
# Procedure, shortened: (§1)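 Glycan array data were curated from 3228 arrays in the Consortium for Functional Glycomics database and kept only where the protein sequence was available. Glycan names were converted to IUPAC-condensed notation, and columns mapping to the same glycan were averaged. The binding signal is a within-array Z-score, averaged across arrays of the same protein sequence at different concentrations or buffers and across linkers. Negative Z-scores can be read as non-binding.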
# Neu5Ac(a2-3)Gal(b1-4)Glc = target: Neu5Ac(a2-3)Gal(b1-4)Glc
# Procedure, shortened: as §1
# [2] = target: Neu5Ac(a2-3)Gal(b1-4)GlcNAc
# Procedure, shortened: as §1
# [3] = target: Neu5Ac(a2-3)Gal(b1-4)GlcNAc(b1-2)Man
# Procedure, shortened: as §1
# [4] = target: Neu5Ac(a2-3)Gal(b1-4)GlcNAc(b1-2)Man(a1-3)[GlcNAc(b1-2)Man(b1-4)GlcNAc(b1-2)Man(a1-6)]Man(b1-4)GlcNAc(b1-4)GlcNAc
# Procedure, shortened: as §1
# [5] = target: Neu5Ac(a2-3)Gal(b1-4)GlcNAc(b1-2)Man(a1-3)[Neu5Ac(a2-3)Gal(b1-4)GlcNAc(b1-2)Man(a1-6)]Man(b1-4)GlcNAc(b1-4)[Fuc(a1-6)]GlcNAc
# Procedure, shortened: as §1
# [6] = target: Neu5Ac(a2-3)Gal(b1-4)GlcNAc(b1-2)Man(a1-3)[Neu5Ac(a2-6)Gal(b1-4)GlcNAc(b1-2)Man(a1-6)]Man(b1-4)GlcNAc(b1-4)GlcNAc
# Procedure, shortened: as §1
# [7] = target: Neu5Ac(a2-3)Gal(b1-4)GlcNAc(b1-2)[Neu5Ac(a2-3)Gal(b1-4)GlcNAc(b1-6)]Man(a1-6)[Neu5Ac(a2-3)Gal(b1-4)GlcNAc(b1-2)Man(a1-3)]Man(b1-4)GlcNAc(b1-4)GlcNAc
# Procedure, shortened: as §1
# [8] = target: Neu5Ac(a2-3)Gal(b1-4)GlcNAc(b1-3)Gal
# Procedure, shortened: as §1
# [9] = target: Neu5Ac(a2-3)Gal(b1-4)GlcNAc(b1-3)Gal(b1-3)GlcNAc
# Procedure, shortened: as §1
# [10] = target: Neu5Ac(a2-3)Gal(b1-4)GlcNAc(b1-3)Gal(b1-4)GlcNAc
# Procedure, shortened: as §1
# [11] = target: Neu5Ac(a2-3)Gal(b1-4)GlcNAc(b1-3)Gal(b1-4)GlcNAc(b1-3)Gal(b1-4)GlcNAc
# Procedure, shortened: as §1
# [12] = target: Neu5Ac(a2-3)Gal(b1-4)GlcNAc(b1-3)Gal(b1-4)[Fuc(a1-3)]GlcNAc
# Procedure, shortened: as §1
# [13] = target: Neu5Ac(a2-3)Gal(b1-4)GlcNAc(b1-3)GalNAc
# Procedure, shortened: as §1
# [14] = target: Neu5Ac(a2-3)Gal(b1-4)GlcNAc(b1-3)[Neu5Ac(a2-3)Gal(b1-4)GlcNAc(b1-6)]GalNAc
# Procedure, shortened: as §1
# [15] = target: Neu5Ac(a2-3)Gal(b1-4)GlcNAc(b1-6)GalNAc
# Procedure, shortened: as §1
# [16] = target: Neu5Ac(a2-3)Gal(b1-4)GlcNAc(b1-6)[Gal(b1-3)]GalNAc
# Procedure, shortened: as §1
# [17] = target: Neu5Ac(a2-3)Gal(b1-4)GlcNAc(b1-6)[Neu5Ac(a2-3)Gal(b1-3)]GalNAc
# Procedure, shortened: as §1
# [18] = target: Neu5Ac(a2-3)Gal(b1-4)GlcNAc6S
# Procedure, shortened: as §1
# [19] = target: Neu5Ac(a2-3)Gal(b1-4)[Fuc(a1-3)]GlcNAc
# Procedure, shortened: as §1
# [20] = target: Neu5Ac(a2-3)Gal(b1-4)[Fuc(a1-3)]GlcNAc(b1-3)Gal
# Procedure, shortened: as §1
# [21] = target: Neu5Ac(a2-3)Gal(b1-4)[Fuc(a1-3)]GlcNAc(b1-3)Gal(b1-4)GlcNAc
# Procedure, shortened: as §1
# [22] = target: Neu5Ac(a2-3)Gal(b1-4)[Fuc(a1-3)]GlcNAc(b1-3)Gal(b1-4)[Fuc(a1-3)]GlcNAc(b1-3)Gal(b1-4)[Fuc(a1-3)]GlcNAc
# Procedure, shortened: as §1
# [23] = target: Neu5Ac(a2-3)Gal(b1-4)[Fuc(a1-3)]GlcNAc(b1-3)GalNAc
# Procedure, shortened: as §1
# [24] = target: Neu5Ac(a2-3)Gal(b1-4)[Fuc(a1-3)]GlcNAc(b1-6)[Gal(b1-3)]GalNAc
# Procedure, shortened: as §1
# [25] = target: Neu5Ac(a2-3)Gal(b1-4)[Fuc(a1-3)]GlcNAc6S
# Procedure, shortened: as §1
# [26] = target: Neu5Ac(a2-3)Gal6S(b1-4)GlcNAc
# Procedure, shortened: as §1
# [27] = target: Neu5Ac(a2-3)Gal6S(b1-4)[Fuc(a1-3)]GlcNAc
# Procedure, shortened: as §1
# Neu5Ac(a2-3)GalNAc = target: Neu5Ac(a2-3)GalNAc
# Procedure, shortened: as §1
# [28] = target: Neu5Ac(a2-3)GalNAc(b1-4)GlcNAc
# Procedure, shortened: as §1
binder,measurement,setting,value
B1,glycan array binding signal (z-score),[1],-0.081
same,glycan array binding signal (z-score),Neu5Ac(a2-3)Gal(b1-4)Glc,-0.32
same,glycan array binding signal (z-score),[2],-0.379
same,glycan array binding signal (z-score),[3],0.71
same,glycan array binding signal (z-score),[4],1.1
same,glycan array binding signal (z-score),[5],-0.386
same,glycan array binding signal (z-score),[6],2.01
same,glycan array binding signal (z-score),[7],0.336
same,glycan array binding signal (z-score),[8],-0.106
same,glycan array binding signal (z-score),[9],-0.392
same,glycan array binding signal (z-score),[10],-0.338
same,glycan array binding signal (z-score),[11],-0.293
same,glycan array binding signal (z-score),[12],-0.192
same,glycan array binding signal (z-score),[13],-0.405
same,glycan array binding signal (z-score),[14],-0.354
same,glycan array binding signal (z-score),[15],-0.375
same,glycan array binding signal (z-score),[16],-0.367
same,glycan array binding signal (z-score),[17],-0.432
same,glycan array binding signal (z-score),[18],0.349
same,glycan array binding signal (z-score),[19],-0.351
same,glycan array binding signal (z-score),[20],-0.258
same,glycan array binding signal (z-score),[21],-0.344
same,glycan array binding signal (z-score),[22],-0.381
same,glycan array binding signal (z-score),[23],-0.385
same,glycan array binding signal (z-score),[24],-0.215
same,glycan array binding signal (z-score),[25],-0.2
same,glycan array binding signal (z-score),[26],-0.365
same,glycan array binding signal (z-score),[27],-0.299
same,glycan array binding signal (z-score),Neu5Ac(a2-3)GalNAc,-0.335
same,glycan array binding signal (z-score),[28],-0.336

# From the supplement of paper PMC8728848
